# In all, about 48,000 compounds went through this assay and about 1,200 (2.5%) were called active. Inconclusive results (about 2%) are left out.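 The calls were made as follows: active = activation of at least 60% and not above a set upper limit (about 1 call in 100 departs from these limits); inconclusive = activation of 40% to 60%, or above that upper limit; inactive = activation under 40%.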 The list shows a part of the results.
# Target: Probable G-protein coupled receptor 32 (Homo sapiens) (UniProt O75388)
# Assay: qHTS for Agonists of Human Resolvin D1 Receptor DRV1; also: 0% is about no effect
# Conditions: CHO-K1 GPR32 beta-arrestin PathHunter luminescence, 90 min; at 76.9 µM; hits give high values; zero percent set by DMSO-only wells
# Method in brief: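 Readings come from a cell-based beta-arrestin complementation format: CHO-K1 GPR32 stable cells (2,500/well) treated 90 min with compounds, then beta-Gal substrate added for 1 h before chemiluminescence imaging.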
# UniProt O75388, sequence (O75388 whole entry, looked up): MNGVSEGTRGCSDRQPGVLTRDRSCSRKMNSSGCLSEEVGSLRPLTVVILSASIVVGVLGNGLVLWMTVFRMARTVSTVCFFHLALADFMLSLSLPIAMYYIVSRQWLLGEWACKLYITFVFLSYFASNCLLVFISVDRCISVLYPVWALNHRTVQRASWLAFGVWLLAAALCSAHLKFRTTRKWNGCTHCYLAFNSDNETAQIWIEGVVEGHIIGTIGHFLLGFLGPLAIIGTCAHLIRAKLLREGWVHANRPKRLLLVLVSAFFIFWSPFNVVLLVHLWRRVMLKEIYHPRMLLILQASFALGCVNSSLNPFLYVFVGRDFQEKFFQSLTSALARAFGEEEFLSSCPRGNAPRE
row,SMILES,activation
1,CN1CCN(C(CNC(=O)c2c(F)cccc2F)c2ccc3c(c2)OCO3)CC1 (stereo not given),inactive: 2.71%
2,Cc1cccc(N2CCN(C(=O)c3cc4ccc5cccnc5c4[nH]3)CC2C)c1 (stereo not given),inactive: -1.94%
3,COc1cccc2c1cc1c(=O)n(CC(=O)N3CCC(C)CC3)nc(C)n12,inactive: -7.2%
4,COCCCNc1nc(NCc2ccc(C)cc2)c2cnn(C)c2n1,active: 69.1%
5,CCC(=O)Nc1sc2c(c1C(=O)Nc1ccc(Br)cc1)CCCCC2,inactive: -7.62%
6,O=c1oc2ccccc2cc1-c1nc(-c2cccs2)no1,inactive: 16.2%
7,COc1ccccc1OCc1nc(-c2cccc(C)c2)no1,active: 76.8%
8,COc1cc(OC)c(NC(=O)N2CC=C(c3c[nH]c4ccccc34)CC2)cc1Cl,inactive: -4.97%
9,COc1cccc(C(=O)Nc2ccc(C(=O)OCc3cc(=O)n4nc(C5CC5)sc4n3)cc2)c1,inactive: 2.87%
10,Cn1c(=O)cc(SCC(=O)N2CCN(c3ccccc3)CC2)c2ccccc21,inactive: -1.52%
11,O=C(O)c1ccc(C2Nc3ccccc3-c3nnc(SCc4ccc(Cl)cc4)nc3O2)cc1 (stereo not given),inactive: 20.1%
12,CCCN1C(=O)C2(c3ccccc31)c1c(oc3ccccc3c1=O)C(=O)N2CCCOC(C)C (stereo not given),inactive: 5.24%
13,O=C(c1ccco1)N1CCN(C(=O)c2cnn(-c3cccc(F)c3)c2C2CCNCC2)CC1,inactive: -3.87%
14,Cc1cccc(-c2nc(SCC(=O)N(C)c3ccccc3)c3c(=O)n(C)c(=O)n(C)c3n2)c1,inactive: -4.33%
15,O=C(c1cccc(Cl)c1)N1CCC(c2nc3ccccc3o2)CC1,inactive: -8.01%
16,O=C(Cn1c(=O)n2nc(-c3cccc(F)c3)nc2c2ccccc21)N1CCN(c2ccccc2F)CC1,inactive: 1.98%
17,COc1ccc(OC)c(NC(=O)c2c(C)oc3ncnc(N4CCOCC4)c23)c1,inactive: -20.7%
18,CC1CCN(C(=O)C(C)Sc2nc(-c3ccccc3)cc(C(F)(F)F)n2)CC1 (stereo not given),inactive: -2.03%
19,CC(Sc1nc2c([nH]c3ccccc32)c(=O)n1-c1ccccc1)c1ccccc1 (stereo not given),inactive: -52.8%
20,CCCCn1c(=O)nc2n(-c3ccc(F)cc3)c3ccccc3cc-2c1=O,inactive: -17.4%
21,CCOC(=O)C1CCN(C(=O)c2ccc3c(c2)N=C(CC)c2cc(C)ccc2S3)CC1,inactive: 18.7%
22,Cc1ccc(-c2cc(C(F)(F)F)n3ncc(-c4ccc(Cl)cc4)c3n2)cc1,inactive: -7.24%

row,SMILES,activation
1,CCC(=O)N1CCc2cc(S(=O)(=O)CCC(=O)NCc3ccc(OC)cc3)ccc21,inactive: -3.19%
2,COc1cccc(CNC(=O)c2cc3ccc4cccnc4c3[nH]2)c1,inactive: 12.2%
3,COc1ccccc1NC(=O)C1=C(C)Nc2nc(SCc3cccc(F)c3)nn2C1c1ccc(C(=O)O)cc1 (stereo not given),inactive: -10.2%
4,COc1ccccc1N1CCN(C(=O)c2cc3c(=O)oc4ccccc4c3s2)CC1,inactive: -2.95%
5,CCc1ccc(NC(=O)CSc2nc3c([nH]c4ccccc43)c(=O)n2-c2cccc(OC)c2)cc1,inactive: -6.9%
6,CCOC(=O)c1ccc(NC(=O)Cn2cnc3sc(C(=O)OCC)c(C)c3c2=O)cc1,inactive: -7.56%
7,CCCCCn1c(=O)c2c(nc3n2CCN3c2ccc(Br)cc2)n(C)c1=O,inactive: -2.49%
8,COc1cc(C)ccc1OCCSc1nc2ccc(NC(C)=O)cc2s1,inactive: 41.5%
9,CCOc1ccc(NC(=O)CSc2nc(=O)[nH]c3c2CCC3)cc1,inactive: -9.96%
10,CCC(Sc1nnc2c3ccccc3n(C)c2n1)C(=O)Nc1nnc(C(C)C)s1 (stereo not given),inactive: 19.4%
11,CCC1CN(C(=O)N2CCC(C(=O)N3CCN(c4cc(C)ccc4C)CC3)CC2)c2ccccc2O1 (stereo not given),inactive: -15.7%
12,COc1ccc(-c2cc3ccc(O)c(CN4CCCC4)c3oc2=O)cc1OC,inactive: -4.75%
13,Cc1ccc(C)c(CNC(=O)c2sc3ncnc(N(C)C4CCCCC4)c3c2C)c1,inactive: -9.1%
14,COC(=O)COc1ccc(Oc2nc(NC(C)(C)C)nc(N(C)C)n2)nn1,inactive: -8.71%
15,Cc1cc(F)ccc1NC(=O)CCSc1nc(-c2ccco2)cc(C(F)(F)F)n1,inactive: 0.568%
16,CCOC(=O)c1c(C)c(-c2ccccc2)n(CC(=O)Nc2cccc(C)c2C)c1C,inactive: -7.53%
17,COc1ccc(C(=O)NCC(c2ccc3c(c2)OCO3)N2CCOCC2)cc1OC (stereo not given),inactive: 6%
18,Cc1ccc(C(=O)NC2(C(F)(F)F)N=C(c3ccccc3)N(C3CCCCC3)C2=O)cc1 (stereo not given),inactive: -24.5%
19,CCc1cc2c(cc3c(=O)n(CC(=O)NCCOC)nc(CC)n32)s1,inactive: -3.37%
20,Cc1ccc2nc(N(Cc3cccnc3)C(=O)CCOc3ccccc3)sc2c1,inactive: 3.07%
21,Cc1cccc(C(=O)N2CCc3cc(CNS(=O)(=O)c4cccs4)ccc32)c1,inactive: 0.853%
22,CCn1c(CC2C(=O)N(C)c3ccc(Br)cc32)nc2ccccc2c1=O (stereo not given),inactive: -36.8%

row,SMILES,activation
1,CC(=O)Nc1ccc(Nc2ncnc3sc4c(c23)CCCC4)cc1,active: 97.4%
2,Cc1ccc2c(c1)N(C(=O)N1CCC(C(=O)NCc3ccccc3F)CC1)CC(C)O2 (stereo not given),inactive: -0.962%
3,Cc1cccc(NC(=O)c2sc(-n3nc(C)c(CCC(C)C)c3C)nc2C)c1,inactive: -5.15%
4,Nc1c(C(=O)c2ccccc2)sc(Nc2ccc(Cl)c(Cl)c2)c1C(=O)Nc1ccccc1,inactive: -105%
5,COC1=C(OC)C(=O)c2ccccc2C1=O,inactive: 23.9%
6,CCOC(=O)CSc1nc2c(sc3ccccc32)c(=O)n1Cc1ccc(OC)cc1,inactive: -14.4%
7,N#Cc1ccccc1OCC(=O)N1CCN(c2ccccc2F)CC1,inactive: 4.98%
8,COc1cc2ccccc2cc1C(=O)Nc1ccc2oc(-c3cccc(C)c3)nc2c1,inactive: -5.04%
9,O=S(=O)(c1ccccc1)c1nc(-c2ccccc2F)oc1N1CCOCC1,inactive: 14.7%
10,COc1ccc(-c2cn3c(n2)sc2cc(C(=O)Nc4ccc(C)cc4C)ccc23)cc1,inactive: -2.5%
11,COc1ccc(CCNc2nc3cc(OC)c(OC)cc3c3nc(-c4cccnc4)nn23)cc1OC,inactive: 6.66%
12,COc1ccc(OC)c(NC(=O)N2CCN(Cc3nc4ccc(C)cc4o3)CC2)c1,inactive: -7.72%
13,COc1ccc(-n2c3c(cc(-c4nc(-c5ccc(Cl)cc5)cs4)c2=O)C(=O)CC(C)(C)C3)cc1Cl,inactive: 24.1%
14,CCOc1ccc(NC(=O)CCSc2nc(-c3ccc4c(c3)OCO4)cc(C(F)(F)F)n2)cc1,inactive: -4.25%
15,Cc1cc(-n2nc3ccc(Cl)cc3n2)c(O)c(C(C)(C)C)c1,inactive: -2.4%
16,CCN1C(=O)c2ccccc2Sc2ccc(NC(=O)c3ccc(C#N)cc3)cc21,inactive: 18.3%
17,Cc1ccccc1NCc1nc2ccccc2n1CCOc1ccccc1,inactive: -20%
18,O=C1NC(c2ccccc2)(c2ccccc2)C(=O)N1COP(=O)(O)O,inactive: -1.15%
19,CN(C(=O)Cn1nnc(-c2ccc(S(C)(=O)=O)cc2)n1)c1ccccc1,inactive: -4.68%
20,Cc1c(C(=O)N(C)C)sc2c1c(=O)n(-c1ccccc1C(F)(F)F)c(=O)n2Cc1cccc(F)c1,inactive: -42.7%
21,COc1ccc(C(=O)Nc2nc3c(s2)Cc2cc(OC)ccc2-3)cc1,inactive: -27.7%
22,O[C@@H]1CO[C@H]2[C@@H]1OC[C@@H]2O,inactive: -3.66%

row,SMILES,activation
1,COc1ccc(NC(=O)CSc2oc(-c3ccco3)nc2S(=O)(=O)c2ccccc2)c(OC)c1,inactive: 0.985%
2,CCOc1ccc(N2CC(c3nc4ccccc4n3CCOc3ccccc3)CC2=O)cc1 (stereo not given),inactive: -21.6%
3,COc1ccc(C2C=C(c3ccccc3)Nc3nc(NC(=O)/C=C/c4ccc(Cl)cc4)nn32)cc1 (stereo not given),inactive: -23.9%
4,Cc1ccc(NC(=O)c2cc(S(=O)(=O)N3CCCCC3)c[nH]2)cc1F,inactive: -5.65%
5,Cc1nn(-c2ccccc2)c2sc(C(=O)Nc3cccc(Br)c3)cc12,inactive: 3.36%
6,Cc1nc2ncnn2c(C)c1CCC(=O)NCc1cccc(Cl)c1,inactive: -3.1%
7,CCOC(=O)c1c(NC(=O)COc2ccc(Br)cc2)sc(C(C)=O)c1C,inactive: -6.45%
8,Cc1noc(C)c1S(=O)(=O)NCCc1csc2nc(-c3ccc(Cl)cc3)nn12,inactive: 22%
9,O=C(COc1ccc(F)cc1)Nc1ccc(Cl)c(-c2nc3ccccc3[nH]2)c1,inactive: 3%
10,COc1ccccc1-c1nnc(C2CCN(S(=O)(=O)c3ccc(F)c(C)c3)CC2)o1,inactive: -7.3%
11,CCOC(=O)N1CCN(C(=O)Cn2ncc3c4ccccc4n(Cc4ccc(F)cc4)c3c2=O)CC1,inactive: -15.4%
12,Cc1cccc(NC(=O)c2c(C)oc3ncnc(N4CCCCC4)c23)c1C,inactive: -18%
13,CCCCc1nn2c(=O)cc(COC(=O)c3ccccc3NC(=O)c3cccc(C)c3)nc2s1,inactive: -24.3%
14,COc1ccc2nc(NC(=O)c3cc(=O)c4cc(C)c(C)cc4o3)sc2c1,inactive: -7.72%
15,CC(=O)Nc1cccc(-c2cn3cccnc3n2)c1,inactive: 23.2%
16,Cc1ccc(NC(=O)Cn2c(=O)n(Cc3ccccc3)c(=O)c3c2c2cc(C)ccc2n3C)cc1,inactive: -4.77%
17,Cc1nc(-c2ccc(F)cc2)sc1CCNC(=O)c1ccc(C(C)(C)C)cc1,inactive: -11.2%
18,Cc1ccc(Cl)cc1NS(=O)(=O)c1ccc(N2CCCCS2(=O)=O)cc1,inactive: 4.62%
19,CCOc1ccc(C(=O)c2c(N)c(-c3nc(-c4ccc(OCC)cc4)cs3)c3ccccn23)cc1,inactive: 8.01%
